# Source: PubChem BioAssay AID445 (National Center for Advancing Translational Sciences (NCATS), 2006)
# Among all 110,000 compounds or so, about 40 (0.04%) were called active. The shares of active, inactive and inconclusive entries below differ from those in the screen. The call rests on the fitted dose curve; in most records, active means well fitted curve in the direction sought with a large enough effect in the signal ratio (not every such curve was filed as active); inconclusive means small, poorly fitted or top-dose-only effect, or a change in a side signal; inactive means flat fitted curve, though single readings scatter; the % refers to the signal ratio. Potencies beside an inconclusive call are fits to weak or partial responses and may not hold up.
# Experiment: IkB Signaling;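 on IkBa stabilization activation: 0% = basal untreated cells and 100% = reference inhibitor full response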
# Conditions: ABC-DLBCL IkBa-CBG/CBR dual luciferase ratio (green luciferase fused to IkBa over red control in OCI-Ly3 lymphoma cells), 4 h; IkBa stabilization activation: at 57.1 µM (top of the series), scaled: untreated 0%, proteasome inhibitor 100% unless noted
# Summary of the method: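 Curves were fitted separately to fusion (green), unfused (red) and ratio luminescence, then classed by r2, magnitude and activity. Cells: OCI-Ly3, 4 h compound plus doxycycline at 37C; 10 uM MG-132 defined full response.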
# Potency means the concentration at half of the fitted maximal effect.
Compound,IkBa stabilization activation,Potency
COc1ccc(NC(=O)c2cc3c(=O)n(Cc4cccs4)ccc3nc2C)cc1,inconclusive: 0.349% [signal inhibitor],–
Cc1ccc(NC(=O)c2c(NC(=O)c3ccc(F)cc3)sc3c2CCCC3)cc1C,–,"inconclusive: 2 µM [signal inhibitor, full curve]"
CCCCCCCCCCCCCCCCOC[C@@H](COCC(F)(F)F)OP(=O)(O)OCO,inactive: -6.46%,–
CCOC(=O)c1c(C)oc2nc(C)nc(N3CCN(c4cc(Cl)ccc4C)CC3)c12,inconclusive: 2.23% [signal inhibitor],–
[O-]/[N+](=C\c1ccncc1)c1ccc(Br)cc1,inactive: 6.71%,–
CC(=O)N1CCC2(CC1)CCN(c1ccccn1)CC2,"inactive: 1% [at 11.4 µM, scaled: untreated 0%, proteasome inhibitor 100%]",–
CCOC(=O)c1cc(OC(=O)c2cc(OC)c(OC)c(OC)c2)n(-c2ccccc2)n1,inconclusive: -2.23% [signal inhibitor],–
CCOc1ccc(-n2c(SCC(=O)Nc3cc(C)on3)nc3c([nH]c4ccccc43)c2=O)cc1,inactive,–
CN(CCC(=O)Nc1ccc2c(c1)OCO2)Cc1ccccc1,inactive: 0.606%,–
CCNc1ncc2ncc(=O)n(C[C@H]3CCCO3)c2n1,"inactive: 1.23% [at 11.4 µM, scaled: untreated 0%, proteasome inhibitor 100%]",–
CC(=O)N1CCN(c2ccc(NC(=O)c3ccc4c(c3)OCCO4)cc2)CC1,inactive: 4.56%,–
COc1cccc(NC(=O)N(Cc2c[nH]c3ccccc23)C2CCCCCC2)c1,inactive: -0.126%,–
O=C(Cn1nc(-c2ccccc2)c2c(c1=O)CCCC2)Nc1ccc(F)c(Cl)c1,inconclusive: 3.69% [signal inhibitor],–
Cc1ccccc1NS(=O)(=O)c1ccc2[nH]cc(C(=O)NC3CCCCC3)c(=O)c2c1,inconclusive: -3.38% [signal inhibitor],–
Cc1ccc(NC(=O)c2oc3ccc(S(=O)(=O)N4CCCCCC4)cc3c2C)c(C)c1,inactive: -0.295%,–
CCn1c(=O)c2cc(C(=O)NC3CCC(C)CC3)sc2c2ccccc21 (centres undefined),inconclusive: 19.6% [signal inhibitor],–
COc1ccccc1C(=O)Nc1ccc(C(=O)O)cc1,–,"inconclusive: 7.94 µM [signal inhibitor, partial curve]"
Cc1cc(=O)[nH]c(SCC(=O)N2CCN(C(c3ccccc3)c3ccccc3)CC2)n1,inconclusive: 3.44% [signal inhibitor],–
O=S1(=O)c2cccc3cccc(c23)N1Cc1ccc(-c2nnco2)cc1,inconclusive: 2.3% [signal inhibitor],–
